Our source for the binding signal (log2 normalized intensity) values is paper PMC10726135.

The other results are listed elsewhere or left out. At the low end of the ranking the order means little. The protein was read in a cell extract, so binding may be indirect.

This assay addresses T1, HNF4alpha2 (COS-7 nuclear extract) (UniProt P41235).
T1 sequence: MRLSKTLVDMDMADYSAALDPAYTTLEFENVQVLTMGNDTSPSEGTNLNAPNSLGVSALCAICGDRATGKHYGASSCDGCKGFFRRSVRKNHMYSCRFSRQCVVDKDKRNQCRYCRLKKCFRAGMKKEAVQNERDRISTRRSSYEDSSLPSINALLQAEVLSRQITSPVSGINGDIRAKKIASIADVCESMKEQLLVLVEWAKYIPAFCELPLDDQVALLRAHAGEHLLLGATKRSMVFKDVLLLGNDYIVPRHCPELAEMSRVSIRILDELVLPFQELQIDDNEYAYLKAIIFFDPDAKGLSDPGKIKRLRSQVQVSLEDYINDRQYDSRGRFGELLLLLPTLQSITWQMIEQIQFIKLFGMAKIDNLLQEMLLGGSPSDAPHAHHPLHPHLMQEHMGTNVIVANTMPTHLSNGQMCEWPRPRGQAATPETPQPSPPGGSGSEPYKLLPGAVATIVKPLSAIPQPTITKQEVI
Nature of the assay: protein-binding microarray. As to conditions: COS-7 nuclear extract on double-stranded Agilent 4x180k PBM; binding buffer, salt, pH and temperature not given; high values mean tight binding; double strand, one strand shown; sequences stand for … in …GCCTAGGGAGATTAGAGTATCGGTCGA
As to GATTACATTGAGTCCACTGAGATCACTTGG, the binding signal (log2 normalized intensity) was 0.579.
Take CCCCGGGGCCGCCTTGGAAAACCCGGCGCG: the binding signal (log2 normalized intensity) is -0.984.
ACAGGCTTTGAGCATCGCTGGACTCTGCTC: the binding signal (log2 normalized intensity) turned out to be 3.94.
As for CCACAGTCCTTAAGATCCAAAGGAGTGGTC, the binding signal (log2 normalized intensity) worked out at 0.0718.
To ATTACTGACCCTTGCACTGTAAGATCAAGA belongs 3.13; to TAAGTTTCTGTCTCACCTGTAAATGTCTCT, 0.87; to GCGGTCCGGACTCTGCCCCACAATTCTTGG, 1.97.
TAATGCGACTTGCCTTGTGTACTCTATCCA: the binding signal (log2 normalized intensity) is 0.778.
The value for CAGACCCTGGAATTCCAGAAATCTTACTGA was -1.04.
To CACCTTCTTTCTCCCAGAGGTCGATCTGAT belongs 1.55; to GGTGGAATGGAAAGAATATGAACTTTGGAA, 5.42; to AATATAGGATCATGTTGTCTGCAAACAGAG, 0.747.
Consider CTGAACTTTTGGCTCCCTGGGGTTAAAATG, for which the binding signal (log2 normalized intensity) stood at 1.99.
As for TTTGAGGATTATGGAGATGGAGATGGCCTG, the binding signal (log2 normalized intensity) turned out to be 0.568.
For TACCATTCCCACCCCATTTCACAGCAACCT, the binding signal (log2 normalized intensity) came out at 1.41.
CCACGCCCGCCGCCAGGTGGCCGAGCAGGA: the binding signal (log2 normalized intensity) is -1.21.
On to TCAAAGAATGCCTGGGTCAAATTGGTGCTT, for which the binding signal (log2 normalized intensity) is 0.484.
Regarding AAACCAGCAGTATCTTTGTGTCACCAATGG, the binding signal (log2 normalized intensity) came to 1.26.
For GCTGCTCAGCTGCCTAGAGGCCTGGGAATG, the binding signal (log2 normalized intensity) is -1.09.
On to TTTTCTAGCTGAGTTGACCTGTGTTGACAG, for which the binding signal (log2 normalized intensity) came to 2.92.
With ACTCAGGAAAGATCAGCTGAAAACTATGCA, the binding signal (log2 normalized intensity) was -1.09.
For the sequence GGAGGGGGCGGTTAAACATTCAGATTCCTG, the binding signal (log2 normalized intensity) was -1.12.
As to ACTTAGGGTTCAAAGGTTGTTGAGCACACA, the binding signal (log2 normalized intensity) stood at 5.06.
In the case of ATACCTAGCTGTTTGCAGGGACAATGGATG, the binding signal (log2 normalized intensity) is 0.958.
The value for AGGGTGACCCCTGTGGTACAGGCAGTGACT was 1.48.
TGTCACACACAGACTTGGGTTCAAAGAGCA: the binding signal (log2 normalized intensity) is 3.94.
Take TTGGGGTCAAGGCCTTTAAGAAGTAGGTGT: the binding signal (log2 normalized intensity) was 1.33.
As for CAGTTTGAAATTAGGCAATATGAGTAGAGC, the binding signal (log2 normalized intensity) is -0.693.
As for ACTCCAACTCAGCCCCCAGCATTATGAAAT, the binding signal (log2 normalized intensity) turned out to be 5.14.
Consider AAAACTCAGATTCCTATGGTAAATGAATAG, for which the binding signal (log2 normalized intensity) is -0.582.
Turning to GTAACAGGCCAAAGGGCAAGAACAATCTTG, the binding signal (log2 normalized intensity) was determined as 2.06.
CTTTGAAGCCCAGAACACTCTACCCCCTCC: the binding signal (log2 normalized intensity) was determined as 4.78.
In the case of GTCACGTGGCTGCTGAGAGGATTAAAAGAT, the binding signal (log2 normalized intensity) was -0.725.
Regarding TCAGTCCAATTCACAGAACTCCCTAAGTGG, the binding signal (log2 normalized intensity) was -1.05.
For CGCATTTCTGCTTCTTCTCATTCTTGGAAT, the binding signal (log2 normalized intensity) is 1.39.
As for TCTGACTGCACTGCAATGACAATAAATTAT, the binding signal (log2 normalized intensity) was -0.0668.
On to TTAAGGGCAAAGGTTACAATTGTCCCCAAG, for which the binding signal (log2 normalized intensity) was 4.93.
In the case of GTGCAACAGGAGCCCAGAGACAGTGGAATC, the binding signal (log2 normalized intensity) was -1.07.
For the sequence TAATCTGGCTCCAAAGTCTATGTGTGCTTT, the binding signal (log2 normalized intensity) was found to be 2.24.
As for GTCTCATTGCCCCTTGAGCTAAATAATTAC, the binding signal (log2 normalized intensity) stood at 2.08.
Turning to ACTTCATCTAAGTGGGTCTAGGTTCTGGGG, the binding signal (log2 normalized intensity) was determined as 0.826.
The value for GGAGCCACTGCAGCTTTCTGAGTAGGACAG was -1.06.
On to AGTCGACCCTCTCTGGATGCAGGTCGCCGG, for which the binding signal (log2 normalized intensity) amounted to 0.254.
Turning to TCTGTTAGGAATGTCATGCAGCTAAAAGCA, the binding signal (log2 normalized intensity) is -0.979.
For the sequence ATGCATTCCATATGGATTAAATCTTGTTGG, the binding signal (log2 normalized intensity) came out at 1.49.
As for AGATTACAGCCACATGCTAACACACCTGGC, the binding signal (log2 normalized intensity) was -1.1.
CACTCATGGTGTTTGCTTTGTGAAGGCTTA: the binding signal (log2 normalized intensity) is 1.28.
On to GTCTCTTCCACCTGGAATGCACTTGTTCCG, for which the binding signal (log2 normalized intensity) came to 0.61.
Turning to CCAAGAGCTTAACCTTTGCCATGTGACAAT, the binding signal (log2 normalized intensity) came to 1.97.
The value for CTCCTGCAGACCCTATTGGGCTAGCCGCTC was -1.21; that for TCTTACTGTGTTGTCGTATTTACTCTAGAA was 1.36.
Take GCCTCCCCCTTCTGAGTCTCCAATGTCCAT: the binding signal (log2 normalized intensity) turned out to be 2.29.
With AAGTCTGTTTATCCTGCCTCCATTAATTAA, the binding signal (log2 normalized intensity) amounted to 0.518.
Turning to CAGGAATATCAACAGGAGCAAATATCGCTT, the binding signal (log2 normalized intensity) is -1.14.
In the case of AAGGTTAGGGGGATTCTGGCTAAACCAGCC, the binding signal (log2 normalized intensity) was -1.08.
With CCTGTCAGTCTCTCAATGATTGACAGGTTA, the binding signal (log2 normalized intensity) was -0.854.
The value for TTTCCAGTTAGGCAGGATGGGGTCATGATA was 2.47; that for CCCAAGTAGAGAGCAGTCCTGCACATGAAT was -1.16.
The value for AAAAAAAAAAAAAAGGCAGTCCTTAGATCC was -1.09; that for CTTTGAACCAGATGGCCCTCTCCAAGGCGG was -1.05.
Take CTTTCATGCCGGCGTGACCCCCACTGCCTG: the binding signal (log2 normalized intensity) came out at 4.24.
For the sequence ATTGCAGACAGCATAGGAAGTGGGGAAGAA, the binding signal (log2 normalized intensity) is -1.2.
Consider TTTTAATTAGAACTGTAATTGAGTAACCAG, for which the binding signal (log2 normalized intensity) worked out at 1.36.
Turning to AGACAGGAGTAGTCAAATTTGTCTAGCGCA, the binding signal (log2 normalized intensity) is -1.12.
Take CCTGTGGCCACAGAGCGCCTAACTATTTTG: the binding signal (log2 normalized intensity) is -1.12.
The value for GATCACCTGGTGGCCATCAAGCAGATCATC was -1.11; that for GAACTTTGATCAGCATTCAAATGAGGGCAG was 3.19; that for TTTCTTTCTTTTCCCAAACCACGTTTCTGT was 1.61.
The value for CCTGGGAATGCCTAGGGGGAAGCCCCTGCT was -1.19; that for GCCCTAGGAATCCTGACCAGGGGCCAGCAA was -1.06.
As for GTCCCACCTGAGGCCAAGCAGCTGTGATGA, the binding signal (log2 normalized intensity) is -0.762.
As to GCTAATCCTACTTTATCTAAGTAAACTAGT, the binding signal (log2 normalized intensity) is -0.824.
As to CCGCACAGTGCAAACACACAATATTGACAT, the binding signal (log2 normalized intensity) is -1.04.
